Measurements: PubChem BioAssay AID894 (National Center for Advancing Translational Sciences (NCATS), 2007)
About 6,500 (4.3%) of roughly 150,000 compounds were called active. This list was built around the results that the source calls inconclusive (neither active nor inactive); the mix of calls is not that of the screen. Calls come from the whole dose curve; as a rule, active = well fitted inhibition curve with a large enough effect (not every such curve was filed as active); inconclusive = small, poorly fitted or top-dose-only effect, or another doubt; inactive = no such curve, though single readings can be large or run the other way. Where the call is inconclusive, the potency comes from a doubtful curve fit.

Target: 15-hydroxyprostaglandin dehydrogenase [NAD(+)] (Homo sapiens) (UniProt P15428)
Test: qHTS Assay for Inhibitors of HPGD (15-Hydroxyprostaglandin Dehydrogenase)
Details: purified HPGD, NADH fluorescence kinetic, PGE2 substrate; activity change, negative = inhibition: stronger effect = lower value
Summary of the method: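 20 nM HPGD preincubated 15 min at room temperature with compound in 50 mM Tris-HCl pH 8, 0.01% Tween 20. Started with 1 mM NAD+ and 30 uM prostaglandin E2; NADH fluorescence (360/450 nm) read 5 times over 30-s intervals, last minus first.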
% is set by controls: 0 for no effect and ±100 for the full control effect; potency is the fitted concentration of half-maximal effect; tags give direction and shape of the fitted curve.

Chain of UniProt P15428 (P15428 whole entry, looked up): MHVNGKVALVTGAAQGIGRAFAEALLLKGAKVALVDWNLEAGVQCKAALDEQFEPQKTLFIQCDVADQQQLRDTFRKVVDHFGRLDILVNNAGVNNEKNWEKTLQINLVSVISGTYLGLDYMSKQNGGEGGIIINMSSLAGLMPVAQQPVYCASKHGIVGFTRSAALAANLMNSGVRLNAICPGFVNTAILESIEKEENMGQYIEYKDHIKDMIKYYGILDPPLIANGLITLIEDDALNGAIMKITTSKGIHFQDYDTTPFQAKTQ

Activity change, negative = inhibition, inactive:
CC(=O)OC1CCC2(C)C(=CC=C3C2CCC2(C)C3CCC2C(C)/C=C/C(C)C(C)C)C1(C)C (centres undefined) -10.1%
COC(=O)[C@@]1(Cc2ccc(OC)cc2)[C@H]2c3cc(C(=O)N(C)C)n(C)c3C[C@H]2CN1C(=O)c1ccccc1 -10.2%
CC(=O)Nc1ccccc1N(C)S(=O)(=O)c1ccc(C)cc1 -8.13%
CCOC(=O)SC1=N/C(=C\c2ccc(N(C)C)cc2)C(=O)S1 -21.6%
COc1ccc(C)cc1N1C(=N)/C(=C2/Nc3ccccc3S2)C(c2ccccc2)C1=O (centres undefined) -15.1%
CCCCc1ccc(N2C(=O)[C@@H]3C(CC(N)=O)NC4(C(=O)Nc5ccc(F)cc54)[C@@H]3C2=O)cc1 (some centres undefined) -12.3%
COc1ccc(S(=O)(=O)N/N=C(/C)c2cccc(NC(=O)c3ccccc3Cl)c2)cc1 -28.1%
CCCCCCCCCCCCCCCCCC(=O)OC(CC(=O)O)C[N+](C)(C)C (centres undefined) -5.86%
c1csc(-c2csc3ncnc(NCCCN4CCOCC4)c23)c1 -16.1%
N#CCCS(=O)(=O)c1ccccc1 -4.05%
CC(C)CNC(=O)c1cc(-c2ccc(Cl)c(Cl)c2)on1 -11.4%
CC(C)C(C)C 1.73%
CCN1C=C(Cc2cccs2)C2=C(C1)C(c1cccs1)C(C#N)=C(N)O2 (centres undefined) -24.1%
COCCCNC(=S)NC1CCCCC1 -11.3%
CCCCc1nc2c(c3c1C[C@H](C)OC3)CN(C(=O)COC)CC2 -9.76%
O=S(=O)(O)c1ccc2c(N=Nc3c(O)ccc4ccccc34)cccc2c1 -3.78%
COc1ccc(CNC2=CC(=O)CC(C)(C)C2)cc1 -3.97%
COc1cc(C(=O)CCN2CCC(c3ccccc3)C2)cc(OC)c1OC (centres undefined) -3.78%
O=C(CSc1nc(-c2ccccc2)nc2ccccc12)Nc1nccs1 -8.96%

Potency, active:
CCNC(=O)/C(=C/c1ccco1)NC(=O)/C=C/c1ccccc1 17.8 µM
S=c1[nH]ncn1/N=C/c1cccc(Oc2ccccc2)c1 10 µM
O=C(c1ccc(C#CC2(O)CCCCC2)cc1)N1CCOCC1 14.1 µM
COC(=O)c1c(NC(=O)c2ccco2)sc(C(=O)N2CCCC2)c1C 17.8 µM
O=C(O)c1c(Cl)c(Cl)c(Cl)c(Cl)c1-c1c2cc(I)c(=O)c(I)c-2oc2c(I)c(O)c(I)cc12 31.6 µM
CCOC(=O)Cc1csc(NC(=O)NC2(C(F)(F)F)Oc3ccccc3O2)n1 35.5 µM
O=C(NC1CCCC1)c1nc2c(nnn2Cc2cccc(Cl)c2)c(=O)[nH]1 2.51 µM
COc1ccc(C=O)cc1OS(=O)(=O)c1ccccc1[N+](=O)[O-] 20 µM
Cc1cccc(-n2cnc3cc(C(=O)N4CCc5ccccc54)ccc32)c1 22.4 µM
Cn1cccc1/C=N/n1c(-c2ccc(Cl)cc2Cl)n[nH]c1=S 12.6 µM
CCOc1cc(/C=C2\N=C(SCC)SC2=O)cc([N+](=O)[O-])c1OC(C)=O 12.6 µM
CC(C)c1ccc(N2CCN(C(=O)c3ccccc3NC(=O)/C=C(\C(=O)O)c3ccccc3)CC2)cc1 35.5 µM

Potency, inconclusive:
COc1cccc2c(=O)n(CC(=O)Nc3cccc(F)c3)ccc12 11.2 µM [inhibitor, partial curve]
O=C(CN(c1ccc(F)cc1)S(=O)(=O)c1ccc2c(c1)OCCO2)Nc1cccnc1 35.5 µM [inhibitor, partial curve]
Cc1ccc(-c2nnc3c4ccccc4c(C)nn23)cc1S(=O)(=O)N1CCN(CCO)CC1 14.1 µM [inhibitor, partial curve]
CCC1OC2(C)OC(=N)C1(C#N)C(C#N)(C#N)C2c1ccccc1 (centres undefined) 35.5 µM [inhibitor, partial curve]
COC(=O)C1=C(C)Nc2c(c(=O)n(C)c(=O)n2C)C1c1ccncc1 (centres undefined) 28.2 µM [inhibitor, partial curve]
COc1ccc(/C=c2\sc3nc(-c4ccccc4OC)nn3c2=O)c(OC)c1 25.1 µM [inhibitor, partial curve, poor fit]
COc1cc(-c2nc(-c3ccc(NC(=O)c4ccc5c(c4)OCO5)cc3)no2)cc(OC)c1OC 25.1 µM [inhibitor, partial curve]
CSc1nc(SCCO)c2sc3nc(-c4ccco4)c4c(c3c2n1)CC(C)(C)OC4 11.2 µM [inhibitor, partial curve]
CCN(CC)S(=O)(=O)c1ccc(NC2c3ncccc3C(=O)N2Cc2ccccc2)cc1 (centres undefined) 12.6 µM [inhibitor, partial curve, poor fit]
c1ccc(-c2cc3c(NCC4COc5ccccc5O4)ncnc3s2)cc1 (centres undefined) 28.2 µM [inhibitor, partial curve]
CC(=O)c1cc2c(cc1NC(=O)c1cc3nc(C(C)C)cc(C(F)(F)F)n3n1)OCO2 25.1 µM [inhibitor, partial curve]
CCOc1ccc2nc(/N=C/c3c(C)[nH]n(-c4ccc(C)cc4)c3=O)sc2c1 25.1 µM [inhibitor, partial curve, poor fit]
O=C1N/C(=C\c2ccc(O)cc2)C(=O)c2ccccc21 14.1 µM [inhibitor, partial curve]
COc1ccc(/C=C2\CCCC3C2=NC(=S)NC3c2ccc(OC)cc2)cc1 (centres undefined) 22.4 µM [inhibitor, partial curve]
CCN(CC)CCCNc1oc(-c2cccc(Cl)c2)nc1C#N 28.2 µM [inhibitor, partial curve]
Cc1ccccc1NC(=S)NCc1ccc2c(c1)OCO2 25.1 µM [inhibitor, partial curve]
Cc1ccc(Cn2nnc3c(=O)[nH]c(C4CCN(C(=O)Cc5cccs5)CC4)nc32)cc1 20 µM [inhibitor, partial curve]
O=c1[nH]c(SCc2nc3ccccc3n2Cc2ccccc2)nc2ccccc12 0.708 µM [inhibitor, full curve, poor fit]
COc1ccc(-c2oc3ncn4nc(Cc5ccccc5)nc4c3c2-c2ccc(OC)cc2)cc1 28.2 µM [inhibitor, partial curve]
COc1ccc2c(c1OC)C(=O)OC2CC(=O)O (centres undefined) 31.6 µM [inhibitor, single point]
O=c1c2c(nc3cc(-c4ccccc4)[nH]n13)CCC2 25.1 µM [inhibitor, partial curve]
COc1cccc(C(=O)NC(=S)Nc2nnn(C)n2)c1 31.6 µM [inhibitor, single point]
CCCCc1cc(=O)oc2cc(OCC(=O)N3CCc4ccccc43)ccc12 25.1 µM [inhibitor, partial curve]
Cc1cccc(-n2c3nc(=O)[nH]c(=O)c-3cc3c(C)nn(-c4ccccc4)c32)c1 31.6 µM [inhibitor, partial curve]
COC(=O)c1sccc1NC(=O)c1cc(C)on1 35.5 µM [inhibitor, partial curve]
COc1ccc(C(Nc2ccccn2)c2oc(CO)cc(=O)c2O)cc1 (centres undefined) 31.6 µM [inhibitor, single point]
CCc1ccc(CC2S/C(=C(\C#N)C(C)=O)NC2=O)cc1 (centres undefined) 25.1 µM [inhibitor, partial curve]
CCC(SC1=N/C(=C/c2ccccc2)C(=O)N1c1ccccc1)C(=O)Nc1cc(C)on1 (centres undefined) 25.1 µM [inhibitor, partial curve]
COc1cc(/C=N/NC(=S)NCCN2CCOCC2)cc(OC)c1O 25.1 µM [inhibitor, partial curve]
CCn1c(SCC(=O)N2CCCCC2)nnc1-c1ccc(S(=O)(=O)N2CCN(C)CC2)cc1 31.6 µM [inhibitor, single point]
Cc1cc(-c2ccccc2)nc(N2CCN(c3ccccn3)CC2)n1 20 µM [inhibitor, single point]
Cc1cccc2nc(-c3ccccc3)nc(N[C@@H](CO)c3ccccc3)c12 31.6 µM [inhibitor, partial curve]
O=c1[nH]c2c(cc1CNCCN1CCOCC1)c(-c1cccc(F)c1)nn2-c1ccccc1 28.2 µM [inhibitor, partial curve]
CCC(=O)Nc1nc2n(n1)C(c1ccc(OC)cc1)C=C(c1ccccc1)N2 (centres undefined) 2 µM [inhibitor, full curve, poor fit]
O=C(/C=C/Nc1ccccc1C(=O)O)c1cccs1 25.1 µM [inhibitor, partial curve, poor fit]
Cc1ccnc2nc(C(=O)Nc3cc(Cl)ccc3N3CCOCC3)nn12 20 µM [inhibitor, partial curve, poor fit]
CC(/C=C1\SC(=S)N(NC(=O)c2ccc(O)cc2)C1=O)=C\c1ccccc1 35.5 µM [inhibitor, partial curve]
Cc1cccn2c(=O)c3cc(C(=O)NCCN4CCOCC4)c(=N)n(CCc4ccccc4)c3nc12 35.5 µM [inhibitor, partial curve]
